# Measured values reported in the supplement of paper PMC8728848.
# This is one part of the list.
# B1: MGL6A (Homo sapiens) (protein)
# chain: MTRTYENFQYLENKVKVQGFKNGPLPLQSLLQRLCSGPCHLLLSLGLGLLLLVIICVVGFQNSKFQRDLVTLRTDFSNFTSNTVAEIQALTSQGSSLEETIASLKAEVEGFKQERQAVHSEMLLRVQQLVQDLKKLTCQVATLNNNGEEASTEGTCCPVNWVEHQDSCYWFSHSGMSWAEAEKYCQLKNAHLVVINSREEQNFVQKYLGSAYTWMGLSDPEGAWKWVDGTDYATGFQNWKPGQPDDWQGHGLGGGEDCAHFTPDGRWNDDVCQRPYHWVCEAGLGQTSQESH
# Columns and labels:
# Assay in all cases: glycan array binding signal (z-score within array); higher = stronger binding
# Settings in all cases: glycan notation: IUPAC condensed, linker removed; mutation: H262T
# Gal(a1-3)Gal(b1-4)GlcNAc = molecular target: Gal(a1-3)Gal(b1-4)GlcNAc
# Outline: (§1)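 From the Consortium for Functional Glycomics database, 3228 arrays were curated, keeping only those whose protein sequence was available. Binding is given as a within-array Z-score averaged across arrays sharing a protein sequence and across linkers. Negative Z-scores can be read as non-binding.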
# [1] = molecular target: Gal(a1-3)Gal(b1-4)GlcNAc(b1-2)Man
# Outline: as §1
# [2] = molecular target: Gal(a1-3)Gal(b1-4)GlcNAc(b1-2)Man(a1-3)[Gal(a1-3)Gal(b1-4)GlcNAc(b1-2)Man(a1-6)]Man(b1-4)GlcNAc(b1-4)GlcNAc
# Outline: as §1
# [3] = molecular target: Gal(a1-3)Gal(b1-4)GlcNAc(b1-3)GalNAc
# Outline: as §1
# [4] = molecular target: Gal(a1-3)Gal(b1-4)GlcNAc(b1-6)GalNAc
# Outline: as §1
# [5] = molecular target: Gal(a1-3)Gal(b1-4)[Fuc(a1-3)]GlcNAc
# Outline: as §1
# [6] = molecular target: Gal(a1-3)Gal(b1-4)[Fuc(a1-3)]GlcNAc(b1-2)Man(a1-3)[Gal(a1-3)Gal(b1-4)[Fuc(a1-3)]GlcNAc(b1-2)Man(a1-6)]Man(b1-4)GlcNAc(b1-4)GlcNAc
# Outline: as §1
# Gal(a1-3)GalNAc = molecular target: Gal(a1-3)GalNAc
# Outline: as §1
# [7] = molecular target: Gal(a1-3)[Gal(a1-4)]Gal(b1-4)GlcNAc
# Outline: as §1
# [8] = molecular target: Gal(a1-4)Gal(b1-3)GlcNAc(b1-2)Man(a1-3)[Gal(a1-4)Gal(b1-3)GlcNAc(b1-2)Man(a1-6)]Man(b1-4)GlcNAc(b1-4)GlcNAc
# Outline: as §1
# Gal(a1-4)Gal(b1-4)Glc = molecular target: Gal(a1-4)Gal(b1-4)Glc
# Outline: as §1
# Gal(a1-4)Gal(b1-4)GlcNAc = molecular target: Gal(a1-4)Gal(b1-4)GlcNAc
# Outline: as §1
# [9] = molecular target: Gal(a1-4)Gal(b1-4)GlcNAc(b1-2)Man(a1-3)[Gal(a1-4)Gal(b1-4)GlcNAc(b1-2)Man(a1-6)]Man(b1-4)GlcNAc(b1-4)GlcNAc
# Outline: as §1
# [10] = molecular target: Gal(a1-4)Gal(b1-4)GlcNAc(b1-3)Gal(b1-4)Glc
# Outline: as §1
# Gal(a1-4)GlcNAc = molecular target: Gal(a1-4)GlcNAc
# Outline: as §1
# Gal(a1-6)Glc = molecular target: Gal(a1-6)Glc
# Outline: as §1
# Gal(b1-2)Gal = molecular target: Gal(b1-2)Gal
# Outline: as §1
# Gal(b1-3)Gal = molecular target: Gal(b1-3)Gal
# Outline: as §1
# Gal(b1-3)Gal(b1-4)GlcNAc = molecular target: Gal(b1-3)Gal(b1-4)GlcNAc
# Outline: as §1
# Gal(b1-3)GalNAc = molecular target: Gal(b1-3)GalNAc
# Outline: as §1
# [11] = molecular target: Gal(b1-3)GalNAc(a1-3)[Fuc(a1-2)]Gal(b1-4)Glc
# Outline: as §1
# [12] = molecular target: Gal(b1-3)GalNAc(a1-3)[Fuc(a1-2)]Gal(b1-4)GlcNAc
# Outline: as §1
# Gal(b1-3)GalNAc(b1-3)Gal = molecular target: Gal(b1-3)GalNAc(b1-3)Gal
# Outline: as §1
# [13] = molecular target: Gal(b1-3)GalNAc(b1-3)Gal(a1-4)Gal(b1-4)Glc
# Outline: as §1
# [14] = molecular target: Gal(b1-3)GalNAc(b1-4)Gal(b1-4)Glc
# Outline: as §1
# [15] = molecular target: Gal(b1-3)GalNAc(b1-4)[Neu5Ac(a2-3)]Gal(b1-4)Glc
# Outline: as §1
# Gal(b1-3)GlcNAc = molecular target: Gal(b1-3)GlcNAc
# Outline: as §1
# [16] = molecular target: Gal(b1-3)GlcNAc(a1-3)Gal(b1-4)GlcNAc
# Outline: as §1
# [17] = molecular target: Gal(b1-3)GlcNAc(a1-6)Gal(b1-4)GlcNAc
# Outline: as §1
# Gal(b1-3)GlcNAc(b1-2)Man = molecular target: Gal(b1-3)GlcNAc(b1-2)Man
# Outline: as §1
# [18] = molecular target: Gal(b1-3)GlcNAc(b1-2)Man(a1-3)[Gal(b1-3)GlcNAc(b1-2)Man(a1-6)]Man(b1-4)GlcNAc(b1-4)GlcNAc
# Outline: as §1
# [19] = molecular target: Gal(b1-3)GlcNAc(b1-2)Man(a1-3)[Gal(b1-3)GlcNAc(b1-2)Man(a1-6)]Man(b1-4)GlcNAc(b1-4)[Fuc(a1-6)]GlcNAc
# Outline: as §1
# [20] = molecular target: Gal(b1-3)GlcNAc(b1-2)Man(a1-3)[GlcNAc(b1-4)][Gal(b1-3)GlcNAc(b1-2)Man(a1-6)]Man(b1-4)GlcNAc(b1-4)GlcNAc
# Outline: as §1
# [21] = molecular target: Gal(b1-3)GlcNAc(b1-2)[Gal(b1-3)GlcNAc(b1-6)]Man(a1-6)[Gal(b1-3)GlcNAc(b1-2)Man(a1-3)]Man(b1-4)GlcNAc(b1-4)GlcNAc
# Outline: as §1
# [22] = molecular target: Gal(b1-3)GlcNAc(b1-3)Gal(b1-3)GlcNAc
# Outline: as §1
# [23] = molecular target: Gal(b1-3)GlcNAc(b1-3)Gal(b1-4)Glc
# Outline: as §1
# [24] = molecular target: Gal(b1-3)GlcNAc(b1-3)Gal(b1-4)GlcNAc
# Outline: as §1
binder,measurement,setting,value
B1,glycan array binding signal (z-score),Gal(a1-3)Gal(b1-4)GlcNAc,-0.172
same,glycan array binding signal (z-score),[1],-0.18
same,glycan array binding signal (z-score),[2],-0.173
same,glycan array binding signal (z-score),[3],-0.175
same,glycan array binding signal (z-score),[4],7.07
same,glycan array binding signal (z-score),[5],-0.18
same,glycan array binding signal (z-score),[6],-0.171
same,glycan array binding signal (z-score),Gal(a1-3)GalNAc,-0.167
same,glycan array binding signal (z-score),[7],-0.163
same,glycan array binding signal (z-score),[8],-0.17
same,glycan array binding signal (z-score),Gal(a1-4)Gal(b1-4)Glc,-0.154
same,glycan array binding signal (z-score),Gal(a1-4)Gal(b1-4)GlcNAc,-0.163
same,glycan array binding signal (z-score),[9],-0.168
same,glycan array binding signal (z-score),[10],-0.173
same,glycan array binding signal (z-score),Gal(a1-4)GlcNAc,-0.185
same,glycan array binding signal (z-score),Gal(a1-6)Glc,-0.172
same,glycan array binding signal (z-score),Gal(b1-2)Gal,-0.182
same,glycan array binding signal (z-score),Gal(b1-3)Gal,-0.169
same,glycan array binding signal (z-score),Gal(b1-3)Gal(b1-4)GlcNAc,-0.175
same,glycan array binding signal (z-score),Gal(b1-3)GalNAc,-0.165
same,glycan array binding signal (z-score),[11],-0.166
same,glycan array binding signal (z-score),[12],-0.176
same,glycan array binding signal (z-score),Gal(b1-3)GalNAc(b1-3)Gal,-0.168
same,glycan array binding signal (z-score),[13],-0.166
same,glycan array binding signal (z-score),[14],-0.164
same,glycan array binding signal (z-score),[15],-0.156
same,glycan array binding signal (z-score),Gal(b1-3)GlcNAc,-0.173
same,glycan array binding signal (z-score),[16],-0.173
same,glycan array binding signal (z-score),[17],-0.176
same,glycan array binding signal (z-score),Gal(b1-3)GlcNAc(b1-2)Man,-0.172
same,glycan array binding signal (z-score),[18],-0.171
same,glycan array binding signal (z-score),[19],-0.17
same,glycan array binding signal (z-score),[20],-0.174
same,glycan array binding signal (z-score),[21],-0.198
same,glycan array binding signal (z-score),[22],-0.175
same,glycan array binding signal (z-score),[23],-0.173
same,glycan array binding signal (z-score),[24],-0.177
